Experimental data reported in the supplement of paper PMC8728848.
The other results are listed elsewhere or left out.

What was measured:
Assay in all cases: glycan array binding signal (z-score within array); higher = stronger binding
Settings in all cases: glycan notation: IUPAC condensed, linker removed
Fuc(a1-2)Gal = target: Fuc(a1-2)Gal
How it was run: (§1)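 The binding signal is a Z-score computed within each array. Data were drawn from 3228 arrays in the Consortium for Functional Glycomics database, restricted to those with a known protein sequence. Scores were averaged over arrays of the same protein sequence at different concentrations or buffers, and over linkers, and negative values can be taken as non-binding.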

Fuc(a1-2)Gal(b1-3)GalNAc = target: Fuc(a1-2)Gal(b1-3)GalNAc
How it was run: as §1

[1] = target: Fuc(a1-2)Gal(b1-3)GalNAc(a1-3)[Fuc(a1-2)]Gal(b1-4)Glc
How it was run: as §1

[2] = target: Fuc(a1-2)Gal(b1-3)GalNAc(a1-3)[Fuc(a1-2)]Gal(b1-4)GlcNAc
How it was run: as §1

[3] = target: Fuc(a1-2)Gal(b1-3)GalNAc(b1-3)Gal
How it was run: as §1

[4] = target: Fuc(a1-2)Gal(b1-3)GalNAc(b1-3)Gal(a1-4)Gal(b1-4)Glc
How it was run: as §1

[5] = target: Fuc(a1-2)Gal(b1-3)GalNAc(b1-4)[Neu5Ac(a2-3)]Gal(b1-4)Glc
How it was run: as §1

Fuc(a1-2)Gal(b1-3)GlcNAc = target: Fuc(a1-2)Gal(b1-3)GlcNAc
How it was run: as §1

[6] = target: Fuc(a1-2)Gal(b1-3)GlcNAc(b1-2)Man(a1-3)[Fuc(a1-2)Gal(b1-3)GlcNAc(b1-2)Man(a1-6)]Man(b1-4)GlcNAc(b1-4)GlcNAc
How it was run: as §1

[7] = target: Fuc(a1-2)Gal(b1-3)GlcNAc(b1-2)Man(a1-3)[Fuc(a1-2)Gal(b1-3)GlcNAc(b1-2)Man(a1-6)]Man(b1-4)GlcNAc(b1-4)[Fuc(a1-6)]GlcNAc
How it was run: as §1

[8] = target: Fuc(a1-2)Gal(b1-3)GlcNAc(b1-3)Gal(b1-4)Glc
How it was run: as §1

[9] = target: Fuc(a1-2)Gal(b1-3)GlcNAc(b1-3)GalNAc
How it was run: as §1

[10] = target: Fuc(a1-2)Gal(b1-3)GlcNAc(b1-3)[Fuc(a1-2)Gal(b1-3)GlcNAc(b1-6)]GalNAc
How it was run: as §1

[11] = target: Fuc(a1-2)Gal(b1-3)GlcNAc(b1-3)[Gal(b1-4)GlcNAc(b1-6)]Gal(b1-4)Glc
How it was run: as §1

[12] = target: Fuc(a1-2)Gal(b1-3)GlcNAc(b1-3)[Neu5Ac(a2-6)Gal(b1-4)GlcNAc(b1-6)]Gal(b1-4)Glc
How it was run: as §1

[13] = target: Fuc(a1-2)Gal(b1-3)GlcNAc6S
How it was run: as §1

[14] = target: Fuc(a1-2)Gal(b1-3)[Fuc(a1-4)]GlcNAc
How it was run: as §1

[15] = target: Fuc(a1-2)Gal(b1-3)[Fuc(a1-4)]GlcNAc(b1-2)Man(a1-3)[Fuc(a1-2)Gal(b1-3)[Fuc(a1-4)]GlcNAc(b1-2)Man(a1-3)]Man(b1-4)GlcNAc(b1-4)GlcNAc
How it was run: as §1

[16] = target: Fuc(a1-2)Gal(b1-3)[Fuc(a1-4)]GlcNAc(b1-2)Man(a1-3)[Fuc(a1-2)Gal(b1-3)[Fuc(a1-4)]GlcNAc(b1-2)Man(a1-6)]Man(b1-4)GlcNAc(b1-4)[Fuc(a1-6)]GlcNAc(b1-4)[Fuc(a1-6)]GlcNAc
How it was run: as §1

[17] = target: Fuc(a1-2)Gal(b1-3)[Fuc(a1-4)]GlcNAc(b1-3)[Fuc(a1-3)[Gal(b1-4)]GlcNAc(b1-6)]Gal(b1-4)Glc
How it was run: as §1

[18] = target: Fuc(a1-2)Gal(b1-3)[Fuc(a1-4)]GlcNAc(b1-3)[Gal(b1-4)GlcNAc(b1-6)]Gal(b1-4)Glc
How it was run: as §1

Fuc(a1-2)Gal(b1-4)Glc = target: Fuc(a1-2)Gal(b1-4)Glc
How it was run: as §1

Fuc(a1-2)Gal(b1-4)Glc6S = target: Fuc(a1-2)Gal(b1-4)Glc6S
How it was run: as §1

Fuc(a1-2)Gal(b1-4)GlcNAc = target: Fuc(a1-2)Gal(b1-4)GlcNAc
How it was run: as §1

[19] = target: Fuc(a1-2)Gal(b1-4)GlcNAc(b1-2)Man
How it was run: as §1

[20] = target: Fuc(a1-2)Gal(b1-4)GlcNAc(b1-2)Man(a1-3)[Fuc(a1-2)Gal(b1-4)GlcNAc(b1-2)Man(a1-6)]Man(b1-4)GlcNAc(b1-4)GlcNAc
How it was run: as §1

[21] = target: Fuc(a1-2)Gal(b1-4)GlcNAc(b1-2)Man(a1-3)[Fuc(a1-2)Gal(b1-4)GlcNAc(b1-2)Man(a1-6)]Man(b1-4)GlcNAc(b1-4)[Fuc(a1-6)]GlcNAc
How it was run: as §1

[22] = target: Fuc(a1-2)Gal(b1-4)GlcNAc(b1-2)[Fuc(a1-2)Gal(b1-4)GlcNAc(b1-4)]Man(a1-3)[Fuc(a1-2)Gal(b1-4)GlcNAc(b1-2)Man(a1-6)]Man(b1-4)GlcNAc(b1-4)GlcNAc
How it was run: as §1

[23] = target: Fuc(a1-2)Gal(b1-4)GlcNAc(b1-3)Gal(b1-4)GlcNAc
How it was run: as §1

[24] = target: Fuc(a1-2)Gal(b1-4)GlcNAc(b1-3)Gal(b1-4)GlcNAc(b1-2)Man(a1-3)[Fuc(a1-2)Gal(b1-4)GlcNAc(b1-3)Gal(b1-4)GlcNAc(b1-2)Man(a1-6)]Man(b1-4)GlcNAc(b1-4)GlcNAc
How it was run: as §1

B1: OGAN (protein)
chain: MVQKESQATLEERESELSSNPAASAGASLEPPAAPAPGEDNPAGAGGAAVAGAAGGARRFLCGVVEGFYGRPWVMEQRKELFRRLQKWELNTYLYAPKDDYKHRMFWREMYSVEEAEQLMTLISAAREYEIEFIYAISPGLDITFSNPKEVSTLKRKLDQVSQFGCRSFALLFNDIDHNMCAADKEVFSSFAHAQVSITNEIYQYLGEPETFLFCPTEYCGTFCYPNVSQSPYLRTVGEKLLPGIEVLWTGPKVVSKEIPVESIEEVSKIIKRAPVIWDNIHANDYDQKRLFLGPYKGRSTELIPRLKGVLTNPNCEFEANYVAIHTLATWYKSNMNGVRKDVVMTDSEDSTVSIQIKLENEGSDEDIETDVLYSPQMALKLALTEWLQEFGVPHQY
Question: Which “glycan array binding signal (z-score)” value (Fuc(a1-2)Gal) does the source give for B1 here?
Answer: -0.012

Question: And the “glycan array binding signal (z-score)” value (Fuc(a1-2)Gal(b1-3)GalNAc)?
Answer: -0.067

Question: What about the “glycan array binding signal (z-score)” value [1] of the same binder?
Answer: -0.034

Question: What about the “glycan array binding signal (z-score)” value [2] of the same binder?
Answer: -0.068

Question: And the “glycan array binding signal (z-score)” value [3]?
Answer: -0.03

Question: And the “glycan array binding signal (z-score)” value [4]?
Answer: -0.088

Question: What about the “glycan array binding signal (z-score)” value [5] of the same binder?
Answer: -0.049

Question: What about the “glycan array binding signal (z-score)” value (Fuc(a1-2)Gal(b1-3)GlcNAc) of the same binder?
Answer: -0.028

Question: And the “glycan array binding signal (z-score)” value [6]?
Answer: -0.053

Question: What about the “glycan array binding signal (z-score)” value [7] of the same binder?
Answer: 0.009

Question: What about the “glycan array binding signal (z-score)” value [8] of the same binder?
Answer: -0.054

Question: And the “glycan array binding signal (z-score)” value [9]?
Answer: -0.052

Question: And the “glycan array binding signal (z-score)” value [10]?
Answer: -0.075

Question: And the “glycan array binding signal (z-score)” value [11]?
Answer: -0.046

Question: And the “glycan array binding signal (z-score)” value [12]?
Answer: -0.068

Question: And the “glycan array binding signal (z-score)” value [13]?
Answer: -0.045

Question: What about the “glycan array binding signal (z-score)” value [14] of the same binder?
Answer: -0.077

Question: And the “glycan array binding signal (z-score)” value [15]?
Answer: 0.055

Question: And the “glycan array binding signal (z-score)” value [16]?
Answer: -0.053

Question: And the “glycan array binding signal (z-score)” value [17]?
Answer: -0.073

Question: And the “glycan array binding signal (z-score)” value [18]?
Answer: -0.044

Question: What about the “glycan array binding signal (z-score)” value (Fuc(a1-2)Gal(b1-4)Glc) of the same binder?
Answer: -0.067

Question: And the “glycan array binding signal (z-score)” value (Fuc(a1-2)Gal(b1-4)Glc6S)?
Answer: -0.026

Question: What about the “glycan array binding signal (z-score)” value (Fuc(a1-2)Gal(b1-4)GlcNAc) of the same binder?
Answer: -0.076

Question: What about the “glycan array binding signal (z-score)” value [19] of the same binder?
Answer: -0.042

Question: And the “glycan array binding signal (z-score)” value [20]?
Answer: -0.01

Question: And the “glycan array binding signal (z-score)” value [21]?
Answer: -0.047

Question: What about the “glycan array binding signal (z-score)” value [22] of the same binder?
Answer: -0.036

Question: What about the “glycan array binding signal (z-score)” value [23] of the same binder?
Answer: -0.06

Question: And the “glycan array binding signal (z-score)” value [24]?
Answer: -0.022
